# Data published in a collection of fitness landscapes (doi:10.1016/j.celrep.2020.107928).
# The full ranking holds about 81,000 sequences; the median of “one-hybrid fitness for binding NBS DNA” is about -0.1, and the highest 2% start at about 0.36. Some of the results follow.
# B1: Caulobacter ParB omega fusion; a variant is named by its letters at X, in order, B8GW30 (parent)
# chain: MESVVVGEPGMSEGRRGLGRGLSALLGEVDAAPAQAPGEQLGGSREAPIEILQRNPDQPRRTFREEDLEDLSNSIREKGVLQPILVRPSPDTAGEYQIVAGERAWRAAQRAGLKTVPIMVRELDDLAVLEIGIIENVQRADLNVLEEALSYKVLMEKFERTQENIAQTIGKSXSHVANXMRLLXLPDEVQSYLVSGELTAXHARAIAAAADPVALAKQIIEGGLSVRETEALARKAPNLSAGKSKGGRPPRVKDTDTQALESDLSSVLGLDVSIDHRGSTGTLTITYATLEQLDDLCNRLTRGI
# Variants of: B1
# Assay: one-hybrid fitness for binding NBS DNA (the Noc-binding site; scaled: cognate 1, non-cognate 0); higher = stronger binding
# Conditions: with NBS DNA site
# In short: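 The reporter was HIS3, with the binding site 19 bp from the promoter, in E. coli USO used for bacterial one-hybrid selection of Caulobacter ParB libraries with four specificity codons randomised. Growth was on M9 lacking histidine, with 0.1 mM IPTG and 5 mM 3-AT, for 48 hours at 37°C. Illumina sequencing covered plasmids before and after selection; three replicate libraries were pooled and variants with under 10 reads dropped. A fitness score is the log change in variant-to-wild-type read ratio, rescaled to the cognate and non-cognate references.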
row,Variant,one-hybrid fitness for binding NBS DNA
1,GLAY,≤ 0.2
2,PWNP,≤ 0.2
3,CQHV,≤ 0.2
4,FRSK,≤ 0.2
5,MMNR,≤ 0.2
6,TMDF,≤ 0.2
7,YKSW,≤ 0.2
8,QCQD,≤ 0.2
9,SGER,≤ 0.2
10,QSRE,0.22
11,EALC,≤ 0.2
12,SSHT,≤ 0.2
13,NKCV,≤ 0.2
14,YSFV,≤ 0.2
15,RCGQ,0.236
16,SPAY,≤ 0.2
17,DKTC,≤ 0.2
18,HGTW,≤ 0.2
19,KPMT,≤ 0.2
20,VTSV,≤ 0.2
21,HLAP,≤ 0.2
22,AIYH,≤ 0.2
23,QLTW,≤ 0.2
24,HPPC,≤ 0.2

row,Variant,one-hybrid fitness for binding NBS DNA
1,SNTY,≤ 0.2
2,STYN,≤ 0.2
3,SKWS,≤ 0.2
4,CRVK,≤ 0.2
5,DRHY,≤ 0.2
6,TDHM,≤ 0.2
7,NWIV,≤ 0.2
8,GRTT,≤ 0.2
9,AKAM,≤ 0.2
10,NMGN,≤ 0.2
11,GRMM,≤ 0.2
12,AKMC,≤ 0.2
13,NCKT,≤ 0.2
14,GLPG,≤ 0.2
15,QCPI,≤ 0.2
16,PEAR,≤ 0.2
17,RLWC,≤ 0.2
18,HPPL,≤ 0.2
19,CHAC,≤ 0.2
20,TMKD,≤ 0.2
21,QECT,≤ 0.2
22,RCYS,0.521
23,QQQH,≤ 0.2
24,VKWG,≤ 0.2

row,Variant,one-hybrid fitness for binding NBS DNA
1,LSLS,≤ 0.2
2,PYYS,≤ 0.2
3,RHCR,0.37
4,PFQA,≤ 0.2
5,QYRG,0.321
6,RRFF,≤ 0.2
7,STDL,≤ 0.2
8,AHDM,≤ 0.2
9,RSCK,≤ 0.2
10,DFQG,≤ 0.2
11,VVNC,≤ 0.2
12,NYRS,≤ 0.2
13,ARSF,≤ 0.2
14,NWGG,≤ 0.2
15,HKLG,≤ 0.2
16,KLNS,≤ 0.2
17,DSFS,≤ 0.2
18,QAML,≤ 0.2
19,DWLV,≤ 0.2
20,KNAV,≤ 0.2
21,KPSY,≤ 0.2
22,YCRR,0.222
23,EYTM,≤ 0.2
24,KVSY,≤ 0.2

row,Variant,one-hybrid fitness for binding NBS DNA
1,LFGG,≤ 0.2
2,NCWR,≤ 0.2
3,MGEG,≤ 0.2
4,WAHS,≤ 0.2
5,NGRT,≤ 0.2
6,LQKY,≤ 0.2
7,QQGG,≤ 0.2
8,PYID,≤ 0.2
9,IWME,≤ 0.2
10,WHAD,≤ 0.2
11,DTMP,≤ 0.2
12,KRTC,≤ 0.2
13,FFTR,≤ 0.2
14,RHCY,≤ 0.2
15,TTWS,≤ 0.2
16,QKTV,≤ 0.2
17,WMYR,≤ 0.2
18,TFSS,≤ 0.2
19,CLRC,≤ 0.2
20,HMQA,≤ 0.2
21,AERR,≤ 0.2
22,YSGE,≤ 0.2
23,MYGS,≤ 0.2
24,AGHL,≤ 0.2

row,Variant,one-hybrid fitness for binding NBS DNA
1,LSDN,≤ 0.2
2,PTMN,≤ 0.2
3,YAQL,≤ 0.2
4,AMEI,≤ 0.2
5,DLLQ,≤ 0.2
6,SHAM,≤ 0.2
7,WRNV,≤ 0.2
8,EPLA,≤ 0.2
9,MKLI,≤ 0.2
10,QLLK,≤ 0.2
11,KNPF,≤ 0.2
12,TTAW,≤ 0.2
13,LVDV,≤ 0.2
14,LTKK,≤ 0.2
15,LGQD,≤ 0.2
16,QASS,0.32
17,KAEN,≤ 0.2
18,KFKM,≤ 0.2
19,NKSY,≤ 0.2
20,DAKM,≤ 0.2
21,GPGT,≤ 0.2
22,VPTP,≤ 0.2
23,ILGG,≤ 0.2
24,YAMS,≤ 0.2

row,Variant,one-hybrid fitness for binding NBS DNA
1,DLAV,≤ 0.2
2,ILML,≤ 0.2
3,TNRA,≤ 0.2
4,ESLC,≤ 0.2
5,RIMS,0.27
6,TRPE,≤ 0.2
7,HLHY,≤ 0.2
8,SGYF,≤ 0.2
9,RCNW,≤ 0.2
10,LYIL,≤ 0.2
11,QDIS,≤ 0.2
12,MGTT,≤ 0.2
13,YKGD,≤ 0.2
14,GGHG,≤ 0.2
15,HYRR,0.208
16,PFLE,≤ 0.2
17,YACP,≤ 0.2
18,QMNV,≤ 0.2
19,VTKT,≤ 0.2
20,APRA,≤ 0.2
21,SSAY,≤ 0.2
22,RDKW,≤ 0.2
23,HPNR,≤ 0.2
24,SCLV,≤ 0.2

row,Variant,one-hybrid fitness for binding NBS DNA
1,RTMC,≤ 0.2
2,ACCT,≤ 0.2
3,VLLM,≤ 0.2
4,MILT,≤ 0.2
5,RYLV,≤ 0.2
6,KMHM,≤ 0.2
7,RLSV,≤ 0.2
8,TRCM,≤ 0.2
9,EPCG,≤ 0.2
10,FPGS,≤ 0.2
11,RGNM,≤ 0.2
12,RHPA,≤ 0.2
13,AQYR,≤ 0.2
14,RRSQ,0.284
15,RAIW,≤ 0.2
16,MLMS,≤ 0.2
17,VHNS,≤ 0.2
18,RWGG,≤ 0.2
19,QLMA,≤ 0.2
20,HVNI,≤ 0.2
21,YVTR,≤ 0.2
22,SHRM,≤ 0.2
23,SINV,≤ 0.2
24,FQLS,≤ 0.2

row,Variant,one-hybrid fitness for binding NBS DNA
1,QLQI,≤ 0.2
2,GKIT,≤ 0.2
3,VTGN,≤ 0.2
4,YECC,≤ 0.2
5,LRST,≤ 0.2
6,RVHI,≤ 0.2
7,KLMN,≤ 0.2
8,WTTS,≤ 0.2
9,SVIC,≤ 0.2
10,GRDH,≤ 0.2
11,VMLR,≤ 0.2
12,TVDV,≤ 0.2
13,QQNH,0.355
14,MVKL,≤ 0.2
15,ATIN,≤ 0.2
16,TPVC,≤ 0.2
17,TTKI,≤ 0.2
18,PVLN,≤ 0.2
19,QLAS,0.329
20,GDPG,≤ 0.2
21,RHCS,0.347
22,ADDT,≤ 0.2
23,KRKY,0.368
24,WTMT,≤ 0.2

row,Variant,one-hybrid fitness for binding NBS DNA
1,ANGP,≤ 0.2
2,TLKG,≤ 0.2
3,RIGR,0.441
4,FNVS,≤ 0.2
5,CSLW,≤ 0.2
6,YKDF,≤ 0.2
7,NGQT,≤ 0.2
8,QSKM,0.362
9,RDTF,≤ 0.2
10,RHQN,≤ 0.2
11,TSRM,≤ 0.2
12,LKAK,≤ 0.2
13,QQHG,≤ 0.2
14,WLWG,≤ 0.2
15,RHCD,≤ 0.2
16,RTYG,≤ 0.2
17,GDTT,≤ 0.2
18,SHRY,≤ 0.2
19,RSEA,≤ 0.2
20,KPEK,≤ 0.2
21,ISFG,≤ 0.2
22,RQRY,0.32
23,QPQL,≤ 0.2
24,PHSG,≤ 0.2

row,Variant,one-hybrid fitness for binding NBS DNA
1,KLGH,≤ 0.2
2,HENG,≤ 0.2
3,PCVP,≤ 0.2
4,IRLA,≤ 0.2
5,VNTG,≤ 0.2
6,DSLC,≤ 0.2
7,LGKL,≤ 0.2
8,TGYY,≤ 0.2
9,KCAL,≤ 0.2
10,NDKV,≤ 0.2
11,ATCL,≤ 0.2
12,DKVT,≤ 0.2
13,AVPL,≤ 0.2
14,QPHT,≤ 0.2
15,PRFL,≤ 0.2
16,VMER,≤ 0.2
17,CSNY,≤ 0.2
18,DHAC,≤ 0.2
19,FDNG,≤ 0.2
20,ARFT,≤ 0.2
21,AKGY,≤ 0.2
22,HSSA,≤ 0.2
23,TPSI,≤ 0.2
24,KPNR,≤ 0.2

row,Variant,one-hybrid fitness for binding NBS DNA
1,MANR,≤ 0.2
2,RNQA,≤ 0.2
3,PLFF,≤ 0.2
4,VYPW,≤ 0.2
5,VYYM,≤ 0.2
6,DRDI,≤ 0.2
7,LQIT,≤ 0.2
8,DVAM,≤ 0.2
9,VGFG,≤ 0.2
10,QLSG,≤ 0.2
11,STEC,≤ 0.2
12,ADQL,≤ 0.2
13,AEPR,0.408
14,NVHN,≤ 0.2
15,NHPD,≤ 0.2
16,CTPY,≤ 0.2
17,EMRT,≤ 0.2
18,PTVS,≤ 0.2
19,LVSG,≤ 0.2
20,YGTV,≤ 0.2
21,TPHH,≤ 0.2
22,FPTS,≤ 0.2
23,STKK,≤ 0.2
24,AVTC,≤ 0.2

row,Variant,one-hybrid fitness for binding NBS DNA
1,QTWK,≤ 0.2
2,RGYK,≤ 0.2
3,HNSY,≤ 0.2
4,YAGM,≤ 0.2
5,NVKS,≤ 0.2
6,FSGF,≤ 0.2
7,RNAM,≤ 0.2
8,FGAS,≤ 0.2
9,GWSC,≤ 0.2
10,PAYD,≤ 0.2
11,YVYL,≤ 0.2
12,DIRL,≤ 0.2
13,QRVA,0.511
14,NRLL,≤ 0.2
15,MLKT,≤ 0.2
16,TYNR,≤ 0.2
17,WAVR,≤ 0.2
18,LGPA,≤ 0.2
19,DCNM,≤ 0.2
20,MRPD,≤ 0.2
21,KPLR,≤ 0.2
22,MQNK,≤ 0.2
23,SDPN,≤ 0.2
24,GMAE,≤ 0.2

row,Variant,one-hybrid fitness for binding NBS DNA
1,FNNR,≤ 0.2
2,PRCD,≤ 0.2
3,RKGR,0.606
4,RMDI,≤ 0.2
5,GRNT,≤ 0.2
6,TRTE,≤ 0.2
7,PAEV,≤ 0.2
8,RPLM,≤ 0.2
9,DTNV,≤ 0.2
10,TAQC,≤ 0.2
11,TSIE,≤ 0.2
12,TSHA,≤ 0.2
13,FLER,≤ 0.2
14,NWKW,≤ 0.2
15,LTAW,≤ 0.2
16,FETG,≤ 0.2
17,QGRN,≤ 0.2
18,VVIM,≤ 0.2
